Screen size: about 410,000 compounds; about 530 (0.13%) were called active. The shares of active, inactive and inconclusive entries below differ from those in the screen. Calls follow the shape of the dose curve; as a rule, active = well fitted inhibition curve with a large enough effect; inconclusive = small, poorly fitted or top-dose-only effect, or another doubt; inactive = no such curve, though single readings can be large or run the other way. Potencies beside an inconclusive call are fits to weak or partial responses and may not hold up.
assay: qHTS of GLP-1 Receptor Inverse Agonists: Cytotox Screen; conditions: HEK293 cAMP-luciferase reporter cells, luminescence, 24 h; series mostly up to 38.3 µM
How it was run: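 Luminescence readout: signal drop marks cytotoxicity. Plated cells grew 12 h at 37 °C, 5% CO2, received 23 nL compound for 24 h, then got luciferase reagent, read after 12 min at RT.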
Potency is read from the fitted curve at half-maximal effect.

Compound | Potency
O[C@H]1C[C@H](c2ccc(Cl)cc2)N(CC2CCCCC2)C[C@@H]1n1cc(C2CC2)nn1 | inconclusive: 31.6 µM [inhibitor, single point]
C/C(=N\NC(=O)COc1cc(C)cc(C)c1)c1ccc(N2CCOCC2)cc1 | inconclusive: 15.8 µM [inhibitor, single point]
Cc1cc2cc(CNS(=O)(=O)c3ccc4ccccc4c3)ccc2n1C | inconclusive: 31.6 µM [inhibitor, single point]
CC(C)c1ccc(COc2ccc(C(=O)N3CCOCC3)cc2)cc1 | inconclusive: 0.501 µM [inhibitor, full curve, poor fit]
COc1cccc(NC(=O)CN(CCc2ccccc2)S(=O)(=O)c2ccc(Cl)cc2)c1 | inactive
Cc1nnnn1/C(=C\c1ccccc1)C(=O)OCC(=O)Nc1cccc(S(=O)(=O)N(C)C)c1 | inconclusive: 10 µM [inhibitor, partial curve, poor fit]
CCN(CC)CCn1c(=S)[nH]c2ccc(Cl)cc2c1=O | inconclusive: 28.2 µM [inhibitor, single point]
Cc1nc(CN(C)C(=O)c2cc(COc3c(F)cccc3F)on2)cs1 | inactive
COc1ccccc1N1CCN(CCN(C(=O)C2CCCCC2)c2ccccn2)CC1 | inactive
COc1ccccc1N1C(=O)S/C(=C\c2ccc(C)s2)C1=O | inactive
COc1ccccc1/C=C/C=N/NC(=O)c1cc(-c2ccco2)[nH]n1 | inconclusive: 28.2 µM [inhibitor, single point]
Cc1[nH]c2ccccc2c1C1=NNC(=Nc2ccc(F)cc2)SC1 | inconclusive: 28.2 µM [inhibitor, single point]
COc1ccc(C(NC(=O)c2c(F)c(F)c(F)c(F)c2F)c2ccccc2)cc1 (centres undefined) | inconclusive: 10 µM [inhibitor, partial curve, poor fit]
CC(C)CNC(=S)Nc1ccc(Oc2ccccc2)cc1 | inconclusive: 31.6 µM [inhibitor, single point]
Clc1cc2cccnc2c2ncccc12 | inconclusive: 5.01 µM [inhibitor, full curve, poor fit]
Nc1ccc(C#Cc2ccccc2)cc1 | inconclusive: 2.24 µM [inhibitor, full curve, poor fit]
Cc1cc(Cl)ccc1NC(=O)NC1CCN(S(=O)(=O)c2ccc(F)cc2)CC1 | inconclusive: 15.8 µM [inhibitor, single point]
CSC1=N/C(=C\c2ccc(Br)o2)C(=O)S1 | inactive
O=C(O)COc1ccc(-c2nc(-c3ccccc3)c(-c3ccccc3)[nH]2)cc1 | inactive
CCc1ccc2[nH]c(=O)c(CN(Cc3ccccc3)C(=O)Nc3ccccc3OC)cc2c1 | inconclusive: 5.01 µM [inhibitor, partial curve]
COC(=O)c1sc(-c2ccc(C(C)(C)C)cc2)cc1NC(=O)/C=C/C(=O)O | inconclusive: 28.2 µM [inhibitor, single point]
COc1cc(/C=N\NC(=O)c2nonc2N)c(OC)cc1Br | inconclusive: 17.8 µM [inhibitor, partial curve, poor fit]
CCCCC(=O)N/N=C/c1ccc(-c2ccc([N+](=O)[O-])cc2)o1 | inactive

Compound | Potency
CCOC(=O)Cc1c(C)nc2c(-c3ccccc3)c[nH]n2c1=O | inactive
CCN(Cc1ccccc1)c1ccc(/C=N/NC(=S)NC(C)C)cc1 | inconclusive: 2.82 µM [inhibitor, full curve, poor fit]
CS(=O)(=O)N(CC(=O)N1CCc2ccccc2C1)c1ccccc1F | inactive
CCCC(=O)N1CCN(c2ccc(NC(=O)c3cc4ccccc4o3)cc2Cl)CC1 | inconclusive: 28.2 µM [inhibitor, single point]
COc1ccc(-c2nc3n(n2)C(c2ccc(OC)c(OC)c2)C(C(=O)Nc2cccnc2)=C(C)N3)cc1 (centres undefined) | inactive
CCCCNCCCOc1ccc(C)cc1Br | inactive
Clc1ccc(OCCCCCN2CCCC2)c(Br)c1 | inconclusive: 28.2 µM [inhibitor, single point]
CC(=O)c1cccc(NC(=S)NC(=O)c2ccccc2Cl)c1 | inconclusive: 3.98 µM [inhibitor, partial curve, poor fit]
CSc1cccc(NC(=O)C2(S(=O)(=O)c3ccc(C)cc3)CC2)c1 | inconclusive: 14.1 µM [inhibitor, single point]
C/C(=N\N=C(/N)SC1CC(=O)N(c2ccc(Br)cc2)C1=O)c1cccs1 (centres undefined) | inconclusive: 28.2 µM [inhibitor, single point]
CCCCCCCCCCOC(=O)Cn1c(COc2ccc(OC)cc2)[n+](C)c2ccccc21 | inconclusive: 28.2 µM [inhibitor, single point]
COc1cccc(N=Nc2ccc(O)c3ncccc23)c1 | inconclusive: 10 µM [inhibitor, partial curve]
CN(C)c1oc(/C=C/c2cccs2)nc1S(=O)(=O)c1ccccc1 | inactive
O=C(c1cccc(F)c1)N1CCN(c2ccc([N+](=O)[O-])c(N3CCOCC3)c2)CC1 | inconclusive: 11.2 µM [inhibitor, partial curve, poor fit]
CCc1ccc(-c2nn(-c3ccccc3)cc2CSC(=N)N)cc1 | inconclusive: 20 µM [inhibitor, single point]
CCn1ccnc1CN(C)C(=O)c1ccc(OC2CCN(CCc3ccccc3)CC2)cc1 | inconclusive: 28.2 µM [inhibitor, single point]
CN(C)CC/C=C1\c2cc(F)ccc2CSc2ccccc21 | inconclusive: 25.1 µM [inhibitor, single point]
CCN(CC)C(=O)C1CCN(S(=O)(=O)c2c(C)noc2/C=C/c2cccc(OC)c2)CC1 | inactive
COc1cccc(NC(=S)N/N=C2\CC(C)(C)Oc3ccc(O)cc32)c1 | inconclusive: 3.98 µM [inhibitor, full curve]
Cc1ccccc1-c1noc(-c2ccc(NCc3ccco3)c([N+](=O)[O-])c2)n1 | inactive
CCOc1ncccc1C(=O)N1CCN(c2cc(Cl)ccc2C)CC1 | inactive
N#C/C(=C\c1cn(Cc2ccccc2)c2ccccc12)C(=O)NCc1ccco1 | inactive
S=C(Nc1ccc(Nc2ccccc2)cc1)Nc1ccccn1 | inconclusive: 3.16 µM [inhibitor, full curve, poor fit]

Compound | Potency
N#Cc1c(-c2ccc(F)cc2)c(-c2ccc(F)cc2)nn(CCO)c1=O | inconclusive: 1.78 µM [inhibitor, full curve, poor fit]
Nc1cc(-c2ccc(Br)cc2)[nH]n1 | inconclusive: 31.6 µM [inhibitor, single point]
CCCCNC(=S)Nc1ccc(SC(F)F)cc1 | inconclusive: 22.4 µM [inhibitor, single point]
Cc1c(N=C2Nc3cccc4cccc2c34)c(=O)n(-c2ccccc2)n1C | inconclusive: 2.24 µM [inhibitor, full curve, poor fit]
CN(C)C(CNC(=O)c1cc(S(=O)(=O)N(C)c2ccccc2)ccc1Cl)c1ccccc1 (centres undefined) | inactive
O=C(CCCN1C(=O)/C(=C\c2ccco2)SC1=S)Nc1ccc(O)cc1C(=O)O | inconclusive: 7.94 µM [inhibitor, partial curve]
CCc1ccc(C2C(C(=O)O)c3ccccc3C(=O)N2C)cc1 (centres undefined) | inconclusive: 31.6 µM [inhibitor, partial curve, poor fit]
O=S(=O)(O)c1cccc(N=Nc2c(O)ccc3ccccc23)c1 | inconclusive: 12.6 µM [inhibitor, single point]
CC(C)CCNC(=S)Nc1ccccc1F | inconclusive: 28.2 µM [inhibitor, single point]
COc1cc(/C=C2\CCCc3c2nc2ccccc2c3C(=O)O)cc(Br)c1O | inactive
CC(=O)Nc1ccc2c(=O)n(-c3ccccc3)sc2c1 | inactive
COc1ccccc1NC(=O)Nc1nc(CC(=O)NCc2ccccn2)cs1 | inconclusive: 22.4 µM [inhibitor, single point]
Cc1ccccc1N1C(=O)c2sc3nc4c(c(=O)n3c2C1=O)CCC4 | inactive
COc1ccc(-c2cc(C)no2)cc1S(=O)(=O)NCCCN(C)Cc1ccccc1 | inactive
CCCn1c(NC(=O)c2cccc(S(=O)(=O)N3CCCC3)c2)nc2ccccc21 | inconclusive: 14.1 µM [inhibitor, single point]
O=C(c1cccs1)N(Cc1nc2sc3c(c2c(=O)[nH]1)CCCC3)C1CCCC1 | inconclusive: 11.2 µM [inhibitor, partial curve, poor fit]
COc1cc(C(=O)NNC(=S)NC(=O)c2ccc3c(c2)OCO3)cc(OC)c1OC | inconclusive: 28.2 µM [inhibitor, single point]
Cc1ccc(/C=N/NC(=O)c2nnn(-c3nonc3N)c2CSc2ccccc2)s1 | inactive
COc1ccccc1-c1cc(C(=O)NN)[nH]n1 | inconclusive: 6.31 µM [inhibitor, partial curve, poor fit]
O=C(Oc1c(Br)cc([N+](=O)[O-])cc1Br)c1cccnc1 | inconclusive: 28.2 µM [inhibitor, single point]
C=CCNc1nnc(Cl)c2ccccc12 | inactive
CCn1c(C)nc([N+](=O)[O-])c1Sc1ccc(F)cc1 | inconclusive: 2.51 µM [inhibitor, partial curve, poor fit]
COc1ccc(-n2c(C)cc(C3=NNC(=NC4CC4)SC3)c2C)cc1 | inconclusive: 11.2 µM [inhibitor, single point]
